Data on eleven compounds can be found in the antibiotic and cytotoxicity screens of Wong et al. (2023).

Structures are written as SMILES. The list shows a part of the results.

The test system of this test is HepG2. The test can be described thus: cytotoxicity call (relative viability < 0.9). The note with it: 10 µM.
For `C[C@@H]1CN([C@@H](C)CO)C(=O)c2cc(NC(=O)C3CCCCC3)ccc2O[C@@H]1CN(C)Cc1ccc(Cl)c(Cl)c1`, the cytotoxicity call is “inactive”.
With `C[C@@H]1CN([C@H](C)CO)C(=O)c2cccc(NS(=O)(=O)c3cn(C)cn3)c2O[C@H]1CN(C)C(=O)Nc1ccccc1` the entry was “inactive”; with `COc1ccc(CN(C)C[C@H]2OCCCC[C@H](C)Oc3ccc(NC(=O)NC(C)C)cc3C(=O)N([C@H](C)CO)C[C@@H]2C)cc1`, “inactive”.
On to `COc1ccc(S(=O)(=O)N(C)C[C@H]2Oc3ccc(NC(=O)Nc4c(C)noc4C)cc3C(=O)N([C@@H](C)CO)C[C@@H]2C)cc1`, for which the cytotoxicity call was “inactive”.
With `C[C@@H]1CN([C@H](C)CO)C(=O)c2cc(NC(=O)Nc3cccc4ccccc34)ccc2O[C@H]1CN(C)Cc1ccc(C(F)(F)F)cc1` the entry was “inactive”; with `CC(C)NC(=O)N(C)C[C@@H]1Oc2c(NS(=O)(=O)c3ccc(Cl)cc3)cccc2C(=O)N([C@@H](C)CO)C[C@H]1C`, “inactive”.
In the case of `C[C@H]1CN([C@@H](C)CO)C(=O)Cc2cc(NC(=O)CCCN(C)C)ccc2O[C@@H]1CN(C)S(=O)(=O)c1cn(C)cn1`, the cytotoxicity call is “inactive”.
The entry for `O=C(C[C@H]1CC[C@@H]2[C@H](COC[C@H](O)CN2C(=O)Nc2cccc(F)c2)O1)NCc1ccccc1Cl` is “inactive”; for `CCOC(=O)C1=CC(OC(CC)CC)C(NC(C)=O)C(N)C1.O=P(O)(O)O` (stereo unspecified) it is “inactive”; for `C[C@H]1CCCCO[C@H](CN(C)C(=O)C2CCCCC2)[C@@H](C)CN([C@@H](C)CO)C(=O)c2cc(NC(=O)Cc3ccccc3)ccc2O1` it is “inactive”.
With `Cc1ccc(S(=O)(=O)N(C)C[C@@H]2Oc3ccc(NS(=O)(=O)c4ccc(F)cc4)cc3CC(=O)N([C@H](C)CO)C[C@H]2C)cc1` the entry was “inactive”.
